# Data reported in the RNAGym collection of RNA variant scans (doi:10.7554/elife.90254).
# The source gives no read counts; variants with many changes may rest on few reads.
# B1: LINE1-full (parent)
# chain: UACGUAGGUGGUUUUCCCCUGAUAGUGCUAAGGGGGCCUGGAAGUUUGGACUGGGCAGAGCUCAACACAGCGUGGCAAAGUGGCUGUGGCUAGACUGCCUCUCUGGAUUCCUCGUCACUCAGCAGGGCAUCUCUGAGAGAAAUGCC
# Variants of: B1
# Assay: self-cleavage, relative activity (ratio to wild type); higher = more cleavage; in vitro, sequencing; the parent is a self-cleaving ribozyme
row,Variant,self-cleavage
1,A43G U73A G93U,0
2,U45C U100C U134A,2.02
3,U45C A79G A107G A129U,0
4,U46C A57U A78G G126A C128U,0.14
5,U45A U134C A136G,1.56
6,U45C U52A A57G U112C,1.06
7,A43G U45C C56U U96C,0.06
8,U46C A65U U108C,0.14
9,U45C U119C A141U,2.14
10,U45C U73C U130A,0.53
11,U45G A69G A117G,0
12,G44A A77U U91C U130C,0.56
13,U45C U96G A129G,0
14,G44A G127A U143C,1.62
15,A43G U45A A69G A117G U134C,0
16,U46A A77G U104C,2.1
17,U45C A67C U73C A77U,0
18,U45C A57U U91C,0.05
19,A43C U102C U109A,1.35
20,U45C U96A G126A,0.02
21,U45A U46G U62C U112A,0
22,A42U U46A U73C U100A U143C,0.42
23,A42U U46C C99U,0.41
24,A43G A57U A65U,0.12

row,Variant,self-cleavage
1,U45C A79G C99U A140G,0.42
2,A43U U46C A138U,1.12
3,A43G U102A A117U U143G,1.7
4,A42U U91C U109C,0.22
5,A43U U100A A129G,1.01
6,U45C A59G A79G U134G,0
7,A43G U73A A138G A142G,1.27
8,A43G A69G U91A,0
9,U46C A59U U73A U102A U108C,1.18
10,A43G U102C G126U A138G,1.97
11,U45A G83A U87A U91C,0.07
12,A43G G83C A136U,0.89
13,U46C A64G U104A,0.15
14,U45A A79G U134A,0.88
15,A43G U45A A59G,0.1
16,A43G U85C U132A,0.12
17,U46C A64G A138G,0.14
18,A43U U109C A117G A136U,0.84
19,U45A A77G U87A U100G A136U,0.08
20,U45A U47A A141G A142G,1.04
21,U46C A57U U134C,0.19
22,U46C A69U C71U A78U,0.04
23,U45C U62A U143C,0.09
24,U45G A59G U115C,0.26

row,Variant,self-cleavage
1,A42U G72A U143C,1.18
2,U45C U96A U112C,0.04
3,U45C U87A A129G G137A,0.13
4,U45C G83A A140G,0.64
5,U45A C71A U96C,0.02
6,U45C A69C G97U G127A,0
7,A42U U45C U109C,1.91
8,U46A U96C U112C U130C U143C,0
9,A43U A65U U96C,0.12
10,A43G U47C A121G G126A,1.35
11,U46A A65G U130C A138G,0.14
12,U45A U62C C76A,0.01
13,U45G A138G A141G,1.67
14,A43G A50G U87A,0
15,U45C A78G A138G,2.12
16,U46A A77U A129G A136U,1.27
17,U46A U115C U134A,1.16
18,A42U U108C U112C C128U A142G,2.75
19,U45C A117G A142G,2.45
20,U46C A57G A78G,1.08
21,U45C U85A A124U A129G,0.12
22,U45G U47C U62C U100A A107U,0
23,A43G G75U A94G U100C,0.14
24,U45C U85C U87G U112C A124U A140G,0.71

row,Variant,self-cleavage
1,G44A U52C A57U C63A C146U,0.04
2,A43G U45G U52A G126U,1.39
3,U45C A79G U134C G144U,1.53
4,A43C A77G U115C,1.31
5,A43U G60U U96A A117G,0.04
6,U46A U100A U134A,1.04
7,U45C A77U U112C G125A,1.41
8,U45C U85C C90U,0.09
9,A42U U45C U85A,0.04
10,U45C A117G A140G,2.92
11,A43G U46C U134C,1.15
12,U45C U62G C84A U134A,0.02
13,A43U A140G A142C,0.9
14,G44A A59G A94G,0.14
15,U45C A65G A94G,0
16,A43G G70U G114A,0.02
17,U45A U91C U134C,0.68
18,A43U A77U U85C U109C,0.19
19,A43U A77U U85C,0.02
20,U45A A59G U96C,0.11
21,U45G A50G C84U,0.14
22,A43G G88A A140U,0.01
23,U45G U96G U109C A136G G144A,0
24,A43G G44A U115A,0.97

row,Variant,self-cleavage
1,A43U A67U C71A,0.03
2,U45C U62C U119A A140G,0.1
3,U45G C71G U112A,0.27
4,A43G A79G G93C,0.03
5,A43G C51U A69G,1.23
6,U45A U81G U108C A136G,1.84
7,U46A A92G U100A C131A U132C A136G,0.23
8,U45C U81A U96A A124G,0.13
9,A43G G48A U81A A140G,1.36
10,U45A A69G U109C,0.84
11,U45C A94U U143C,0.19
12,U45C U100C A140G U143A,2.69
13,U46A U52A G74U A136U,1.33
14,A43G U104G G105U,0.98
15,U45C A136G A140G,1.72
16,A43U U62A U143C,0.05
17,U45C U73A A77G A79G,1.84
18,U46A G54C A67U A77G A138G,0.04
19,U45A G105C A121G,2.36
20,G44U U46C A50C G89A A129G U143A,0.16
21,A43G A65C A92U U109C C113U,0.16
22,U45C U46C A94U,0.4
23,U45A A50U A64U A65U C113U,0.03
24,U45A A67G A77G,0.69

row,Variant,self-cleavage
1,U45C A69U A140G,0.06
2,U46A A69U A141G,0.04
3,A42U G93U U134C,0.07
4,U45C A50U A79G,0.81
5,U45A U52C A77G C120U,1.46
6,A43G U87C U104A,0.08
7,U46C A64G U73A A138U,0.26
8,U45C U119C U134C,1.15
9,G44A C110A A121G,1.47
10,U45A U87C U102C,0
11,A43G G97A U112C,0.12
12,U45C A50G U85A U112A U115A,0
13,U45C G48A A69G U119C,0.16
14,U46A A69U G88A,0.04
15,U46C A64U U102A,0.51
16,U46C A67G A140G,0.88
17,G44A U45G U134C,1.61
18,U45C G53A U87A U96C U104A,0.1
19,U45A A59G U73C A78G G114A,0.07
20,A43U A57G G60U U130C,0.01
21,A42U U85C U100C A142G C146U,0.53
22,U46C A69U C103A,0.04
23,A43G C113U A136G,1.01
24,A43G U45C C61A,0.06

row,Variant,self-cleavage
1,U46A A57G G72A,0.53
2,A43U A124G A142G,0.86
3,U45C A117G U130C,1.84
4,U45C U46C A64G G74A,0.16
5,U46C A57U A79G,0.1
6,A43G U115C A117U A141G,0.77
7,A43G U96A U109C,0.08
8,U45C A65G G88A,0.05
9,U45C U108C G125A,2.1
10,A43G A117G U132C,1.23
11,U45A A67U U87A C133A,1.1
12,A43U A94G A136U,0.3
13,A43G A57U G135A A142C,0.08
14,A43G U47A G97A,0.04
15,A43U G53U A77U C84U,0.08
16,U46A U85A U96C,0.05
17,G44U A79G C90U,0.03
18,A43G G86C A136G,0
19,U45C A59U C99U A129U,0.33
20,U46C A65G A117U A121G,0.06
21,A43G U62A A78G,0.06
22,A43U U45C U134C U143C,0
23,U45C U104C A129U,1.78
